According to paper PMC8617505 (Proceedings of the National Academy of Sciences of the …, 2021):

System: GNCA β-lactamase
Settings: read-out: KM (μM^-1)

CC1(C)S[C@@H]2[C@H](NC(=O)Cc3ccccc3)C(=O)N2[C@H]1C(=O)O [benzylpenicillin]
Km: 15.1 ± 0.7 µM
